According to PMC4336329 (PLoS ONE, 2015):
In all, about 310,000 compounds went through this assay and about 2,200 (0.71%) showed an effect of 50% or more. The effect is printed as a negative number. The list shows a part of the results.

Target: human ether-à-go-go-related gene (hERG) potassium channel (human, UniProt Q12809)
Assay: primary screen, population patch clamp on CHO cells stably expressing hERG

Chain of human ether-à-go-go-related gene (hERG) potassium channel (Q12809 whole entry, looked up): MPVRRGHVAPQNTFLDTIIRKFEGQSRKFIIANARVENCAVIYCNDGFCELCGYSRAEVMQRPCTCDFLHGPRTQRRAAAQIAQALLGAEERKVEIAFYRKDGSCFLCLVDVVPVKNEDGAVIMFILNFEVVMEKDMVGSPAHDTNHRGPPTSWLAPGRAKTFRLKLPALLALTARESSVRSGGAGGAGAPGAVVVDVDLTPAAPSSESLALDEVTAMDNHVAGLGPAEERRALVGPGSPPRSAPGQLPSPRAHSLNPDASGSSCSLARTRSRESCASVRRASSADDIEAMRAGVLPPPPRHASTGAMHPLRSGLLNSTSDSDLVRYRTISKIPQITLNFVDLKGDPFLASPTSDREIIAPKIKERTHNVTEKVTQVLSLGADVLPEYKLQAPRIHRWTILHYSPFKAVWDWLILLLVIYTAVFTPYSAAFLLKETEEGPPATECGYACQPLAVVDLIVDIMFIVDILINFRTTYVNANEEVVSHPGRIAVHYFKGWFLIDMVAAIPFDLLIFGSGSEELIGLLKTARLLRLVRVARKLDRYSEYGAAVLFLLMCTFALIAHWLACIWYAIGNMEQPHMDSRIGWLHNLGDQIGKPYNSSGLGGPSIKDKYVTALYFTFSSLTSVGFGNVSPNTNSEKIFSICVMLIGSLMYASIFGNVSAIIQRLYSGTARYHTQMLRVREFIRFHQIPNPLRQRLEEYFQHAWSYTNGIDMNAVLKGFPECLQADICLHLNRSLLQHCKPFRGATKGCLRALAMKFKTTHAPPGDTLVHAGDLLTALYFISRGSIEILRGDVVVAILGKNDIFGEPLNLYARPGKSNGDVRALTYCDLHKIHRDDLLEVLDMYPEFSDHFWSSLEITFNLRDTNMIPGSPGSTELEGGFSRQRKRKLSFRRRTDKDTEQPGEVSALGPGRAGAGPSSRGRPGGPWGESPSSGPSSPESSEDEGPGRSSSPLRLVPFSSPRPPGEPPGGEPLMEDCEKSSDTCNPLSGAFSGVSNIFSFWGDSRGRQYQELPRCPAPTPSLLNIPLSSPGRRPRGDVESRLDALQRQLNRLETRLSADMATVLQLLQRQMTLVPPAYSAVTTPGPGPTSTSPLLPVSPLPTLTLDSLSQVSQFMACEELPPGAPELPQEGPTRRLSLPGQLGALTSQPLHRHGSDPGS

Compared with `CCCCc1ccc(NC2=NCC(=O)N2CCc2ccccc2)cc1.Cl`, `O=C1c2ccccc2C(Nc2ccc3c(c2)OCO3)N1Cc1ccc2c(c1)OCO2` (centres unmarked) is higher in “hERG current change (%, negative = inhibition) at 1uM” value: -2.78% for the first, 6.62% for the second.

Going from `CN1CCN(c2ccc(/C=C3\C(=O)NC(=S)N(c4cccc(Br)c4)C3=O)o2)CC1` to `CC(=O)N1CCc2cc(Br)cc(S(=O)(=O)N3CCN(C(=O)c4ccco4)CC3)c21`, the “hERG current change (%, negative = inhibition) at 1uM” value rises from 2.41% to 4.49%.

Going from `NC(=O)c1nsc(C(=O)N(Cc2cccnc2)C(C(=O)NCc2ccc(F)cc2)c2ccc(O)cc2)c1N` (centres unmarked) to `Nc1c(N(Cc2ccccc2)C(=O)COc2ccc(F)cc2)c(=O)[nH]c(=O)n1Cc1ccccc1`, the “hERG current change (%, negative = inhibition) at 1uM” value falls from 11.4% to 2.76%.

Compared with `O=C(C[n+]1cc(-c2ccccc2)n2c1CCC2)c1cccs1.[Br-]`, `O=C(Cc1nnc(NC(=O)Nc2ccccc2)s1)NCc1ccccc1` is higher in “hERG current change (%, negative = inhibition) at 1uM” value: 8.16% for the first, 14.6% for the second.

First: C[C@H](NC(=O)c1[nH]cnc1C(=O)N[C@H](C)c1ccccc1)c1ccccc1
Second: O=C(/C=C/c1ccccc1)N/C(=C/c1ccccc1)C(=O)NCCO
The “hERG current change (%, negative = inhibition) at 1uM” value of the first is higher: 12.3% for the first, -7.64% for the second.

First: COc1ccc(NC(=O)c2ccc(Cc3ccc(C)cc3)o2)cc1
Second: COc1ccc(-n2cc(C(=O)c3ccc4ccccc4c3O)cn2)cc1
The “hERG current change (%, negative = inhibition) at 1uM” value of the first is lower: -16.2% for the first, 18% for the second.

Going from `O=C(N/N=C/c1ccncc1)c1cccc(N/N=C/c2ccncc2)c1` to `COc1cccc(CN2CCN(C(=O)c3cc(-c4ccncc4)nc4ccc(C)cc34)CC2)c1`, the “hERG current change (%, negative = inhibition) at 1uM” value falls from 1.51% to -21%.

Going from `Cc1cccc(CCNC(=O)c2cc(S(=O)(=O)N3CCOCC3)cn2C)c1` to `CCOCCCNC(=O)C1CCN(S(=O)(=O)c2ccc(C)cc2)CC1`, the “hERG current change (%, negative = inhibition) at 1uM” value rises from -3.05% to 14.2%.

Going from `COc1cccc(NC(=O)CSc2ncc(S(=O)(=O)c3ccccc3)c(=O)[nH]2)c1` to `CN(C)S(=O)(=O)c1cccc(CSc2cccc[n+]2[O-])c1`, the “hERG current change (%, negative = inhibition) at 1uM” value rises from 4.66% to 9.87%.

First: O=C(Cc1ccccc1[N+](=O)[O-])OCc1cccc([N+](=O)[O-])c1
Second: COc1ccc(Cl)cc1NC(=O)c1cnc2n(c1=O)CCS2
The “hERG current change (%, negative = inhibition) at 1uM” value of the first is higher: 5.13% for the first, 0.629% for the second.

Compared with `COc1cc(C)ccc1S(=O)(=O)n1nc(C)cc1C`, `CSc1nnc(C)c(/C=C/Nc2ccc(C)cc2)n1` is lower in “hERG current change (%, negative = inhibition) at 1uM” value: 16.6% for the first, 9.57% for the second.

In the case of `CC(C)(C)n1nc(-c2ccc(F)cc2)c2c(N)ncnc21`, the “hERG current change (%, negative = inhibition) at 1uM” value is reported as -13.7%.
